Drawing on paper PMC12820563, “FoxP3 forms a head-to-head dimer in vivo and stabilizes its multimerization on adjacent microsatellites”, this text covers binding signal for 31 sequences.

The list shows a part of the results.

The assay concerns the target T1, MBP-FoxP1dN (Mus musculus, UniProt P58462 326-579).
T1 sequence: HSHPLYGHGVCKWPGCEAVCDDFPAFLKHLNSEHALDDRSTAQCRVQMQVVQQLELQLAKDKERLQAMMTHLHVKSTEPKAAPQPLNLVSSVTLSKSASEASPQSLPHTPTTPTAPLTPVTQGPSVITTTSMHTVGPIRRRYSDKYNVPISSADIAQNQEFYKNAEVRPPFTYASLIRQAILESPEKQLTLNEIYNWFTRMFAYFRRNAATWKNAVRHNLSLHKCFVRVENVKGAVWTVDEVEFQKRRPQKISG
As to the kind of experiment: PD-seq (MBP pull-down with sequencing); 20 mM Tris-HCl pH 7.5, 100 mM NaCl, 1.5 mM MgCl2, 0.4 uM protein, 0.1 uM dsDNA library, 30 min, room temperature, amylose pull-down; high values mean tight binding. The conditions noted are these: protein: recombinant; tags: His6-MBP; chain copies: 2; dsDNA, one strand shown. The gist of the method:
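Protein and DNA were mixed at 0.4 µM and 0.1 µM and held for 30 min at room temperature in Tris pH 7.5 buffer with NaCl and MgCl2; the protein was a His6-MBP-tagged, N-terminally truncated mouse FoxP3 or FoxP1 fragment from E. coli, and the DNA a Klenow-filled double-stranded degenerate library. Amylose resin captured the complexes, which were washed three times. Binding is read as reads-per-million enrichment of pull-down versus input after Illumina sequencing, with replicates pooled.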
Take “GATGATTGTTCTCCCAGCTGATGAATTCTGGGTTTCGAGTAAACAAATTTTCCTAATCTTTCTGTTCAAGCGCCATCTAC”: the binding signal was 0.808 RPM ratio (pull-down/input).

“GATGATTGTTCTCCCAGCTGATGAATTGTCTGACTCGAGTAAACAAATTTTCCTAATCTTTCTGTTCAAGCGCCATCTAC”: the binding signal is 0.905 RPM ratio (pull-down/input).

As to “GATGATTGTTCTCCCAGCTGATGAATTAACAAATTCGAGTAAACAAATTTTCCTAATCTTTCTGTTCAAGCGCCATCTAC”, the binding signal was 1.43 RPM ratio (pull-down/input).

“GATGATTGTTCTCCCAGCTGATGAATTTACGGCATCGAGTAAACAAATTTTCCTAATCTTTCTGTTCAAGCGCCATCTAC”: the binding signal was 1.21 RPM ratio (pull-down/input).

“GATGATTGTTCTCCCAGCTGATGAATTTCAGCGCTCGAGTAAACAAATTTTCCTAATCTTTCTGTTCAAGCGCCATCTAC”: the binding signal was 0.803 RPM ratio (pull-down/input).

On to “GATGATTGTTCTCCCAGCTGATGAATTAGAGTCTTCGAGTAAACAAATTTTCCTAATCTTTCTGTTCAAGCGCCATCTAC”, for which the binding signal was 0.899 RPM ratio (pull-down/input).

Take “GATGATTGTTCTCCCAGCTGATGAATTAAAGGTGTCGAGTAAACAAATTTTCCTAATCTTTCTGTTCAAGCGCCATCTAC”: the binding signal is 0.842 RPM ratio (pull-down/input).

On to “GATGATTGTTCTCCCAGCTGATGAATTCTGCACCTCGAGTAAACAAATTTTCCTAATCTTTCTGTTCAAGCGCCATCTAC”, for which the binding signal was 0.768 RPM ratio (pull-down/input).

For “GATGATTGTTCTCCCAGCTGATGAATTGCCACAATCGAGTAAACAAATTTTCCTAATCTTTCTGTTCAAGCGCCATCTAC”, the binding signal is 1.47 RPM ratio (pull-down/input).

“GATGATTGTTCTCCCAGCTGATGAATTCCAGGCCTCGAGTAAACAAATTTTCCTAATCTTTCTGTTCAAGCGCCATCTAC”: the binding signal is 0.783 RPM ratio (pull-down/input).

For the sequence “GATGATTGTTCTCCCAGCTGATGAATTCACTGGGTCGAGTAAACAAATTTTCCTAATCTTTCTGTTCAAGCGCCATCTAC”, the binding signal is 0.782 RPM ratio (pull-down/input).

For “GATGATTGTTCTCCCAGCTGATGAATTGGGCTGCTCGAGTAAACAAATTTTCCTAATCTTTCTGTTCAAGCGCCATCTAC”, the binding signal was 0.761 RPM ratio (pull-down/input).

Consider “GATGATTGTTCTCCCAGCTGATGAATTACGTCTTTCGAGTAAACAAATTTTCCTAATCTTTCTGTTCAAGCGCCATCTAC”, for which the binding signal was 1.1 RPM ratio (pull-down/input).

For the sequence “GATGATTGTTCTCCCAGCTGATGAATTCGCAATATCGAGTAAACAAATTTTCCTAATCTTTCTGTTCAAGCGCCATCTAC”, the binding signal is 1.02 RPM ratio (pull-down/input).

Consider “GATGATTGTTCTCCCAGCTGATGAATTTCTGGCATCGAGTAAACAAATTTTCCTAATCTTTCTGTTCAAGCGCCATCTAC”, for which the binding signal is 1.02 RPM ratio (pull-down/input).

In the case of “GATGATTGTTCTCCCAGCTGATGAATTGGACTCGTCGAGTAAACAAATTTTCCTAATCTTTCTGTTCAAGCGCCATCTAC”, the binding signal was 0.753 RPM ratio (pull-down/input).

Turning to “GATGATTGTTCTCCCAGCTGATGAATTCATGCACTCGAGTAAACAAATTTTCCTAATCTTTCTGTTCAAGCGCCATCTAC”, the binding signal is 1.04 RPM ratio (pull-down/input).

For the sequence “GATGATTGTTCTCCCAGCTGATGAATTCTACCAATCGAGTAAACAAATTTTCCTAATCTTTCTGTTCAAGCGCCATCTAC”, the binding signal was 1.14 RPM ratio (pull-down/input).

With “GATGATTGTTCTCCCAGCTGATGAATTCATATAGTCGAGTAAACAAATTTTCCTAATCTTTCTGTTCAAGCGCCATCTAC”, the binding signal is 0.956 RPM ratio (pull-down/input).

Consider “GATGATTGTTCTCCCAGCTGATGAATTGGGTAGCTCGAGTAAACAAATTTTCCTAATCTTTCTGTTCAAGCGCCATCTAC”, for which the binding signal was 0.794 RPM ratio (pull-down/input).

On to “GATGATTGTTCTCCCAGCTGATGAATTGAGAACTTCGAGTAAACAAATTTTCCTAATCTTTCTGTTCAAGCGCCATCTAC”, for which the binding signal is 0.853 RPM ratio (pull-down/input).

For “GATGATTGTTCTCCCAGCTGATGAATTATTCTATTCGAGTAAACAAATTTTCCTAATCTTTCTGTTCAAGCGCCATCTAC”, the binding signal is 0.997 RPM ratio (pull-down/input).

Regarding “GATGATTGTTCTCCCAGCTGATGAATTCATGTGGTCGAGTAAACAAATTTTCCTAATCTTTCTGTTCAAGCGCCATCTAC”, the binding signal was 0.926 RPM ratio (pull-down/input).

“GATGATTGTTCTCCCAGCTGATGAATTGTACCCATCGAGTAAACAAATTTTCCTAATCTTTCTGTTCAAGCGCCATCTAC”: the binding signal was 0.989 RPM ratio (pull-down/input).

“GATGATTGTTCTCCCAGCTGATGAATTTCTGCAGTCGAGTAAACAAATTTTCCTAATCTTTCTGTTCAAGCGCCATCTAC”: the binding signal was 0.883 RPM ratio (pull-down/input).

With “GATGATTGTTCTCCCAGCTGATGAATTTTTATAATCGAGTAAACAAATTTTCCTAATCTTTCTGTTCAAGCGCCATCTAC”, the binding signal was 1.3 RPM ratio (pull-down/input).

Regarding “GATGATTGTTCTCCCAGCTGATGAATTATGATTCTCGAGTAAACAAATTTTCCTAATCTTTCTGTTCAAGCGCCATCTAC”, the binding signal is 0.982 RPM ratio (pull-down/input).

For “GATGATTGTTCTCCCAGCTGATGAATTCTCCTGCTCGAGTAAACAAATTTTCCTAATCTTTCTGTTCAAGCGCCATCTAC”, the binding signal is 0.838 RPM ratio (pull-down/input).

Consider “GATGATTGTTCTCCCAGCTGATGAATTTTACAAATCGAGTAAACAAATTTTCCTAATCTTTCTGTTCAAGCGCCATCTAC”, for which the binding signal is 1.1 RPM ratio (pull-down/input).

Regarding “GATGATTGTTCTCCCAGCTGATGAATTATACGCTTCGAGTAAACAAATTTTCCTAATCTTTCTGTTCAAGCGCCATCTAC”, the binding signal is 1.09 RPM ratio (pull-down/input).

On to “GATGATTGTTCTCCCAGCTGATGAATTGAGTACCTCGAGTAAACAAATTTTCCTAATCTTTCTGTTCAAGCGCCATCTAC”, for which the binding signal is 0.844 RPM ratio (pull-down/input).
